Hit rate of the full screen: of about 52,000 compounds, about 1,700 (3.3%) were called active. Rule as the data show it: active = survival mostly below about 52% (no sharp cut-off); inactive = mostly above about 56%. This is one part of the list.

For this experiment, the system named is Wild type. In words: growth inhibition of S. aureus wild type versus tarO mutant, primary screen, teichoic acid synthesis inhibitors, RN4220, OD600 (AID 463173). Particulars: S. aureus RN4220 wild type/DeltatarO growth, OD600, 18 h, active compounds read low, screened at 18.75 µg/mL (by protocol).
For `CCOc1nc(NC(=O)NS(=O)(=O)Oc2cccc(F)c2)nc(-c2ccccc2)n1`, the survival is inactive: 82%.
As for `COc1cccc(-c2ccc3c(N)c(C(=O)Nc4ccc(Cl)cc4F)sc3n2)c1`, the survival is inactive: 79%.
As for `CCc1ccccc1NC(=O)Cc1ccc(-n2c(C)nc3cccnc32)cc1`, the survival is inactive: 119%.
With `COc1ccc(OC)c(NC(=O)Cc2c(C(=O)O)[nH]c3ccc(Cl)cc23)c1` the figure was inactive: 57%; with `Cc1ccc(C2=Nc3ccccc3N(CC(=O)NCc3ccc(Cl)cc3)C(=O)C2)cc1C`, inactive: 66%; with `N/C(=N/OC(=O)c1ccccc1)c1ccccn1`, inactive: 86%.
Consider `O=C(CSc1oc(-c2ccccc2)nc1S(=O)(=O)c1ccc(Br)cc1)NC1CCCCC1`, for which the survival was inactive: 74%.
Then `O=C(O)C1CCN1C1CCCCC1` (configuration not stated), with inactive: 99%; and `Cc1cccc(CSc2nc3cccnc3n2Cc2ccc(C(=O)NCc3cccs3)cc2)c1`, with inactive: 78%; and `NC(=O)Cn1c2[n+](c3ccccc31)CC(O)CS2` (configuration not stated), with inactive: 107%.
As for `O=C(c1ccccc1N=Nc1c(O)[nH]c(=O)[nH]c1=O)N1CCOCC1`, the survival was inactive: 95%.
As to `O=C(c1ccc(Cl)cc1)N1CCCCC1CCN1CCOCC1` (configuration not stated), the survival was inactive: 108%.
Consider `Cc1ccc(C)c(N2CCN(C(=O)c3cc4c(=O)n(Cc5cccnc5)ccc4nc3C)CC2)c1`, for which the survival was inactive: 64%.
With `COc1ccc(NC(=O)CSc2nc3ccccc3n2CC(=O)N2CCCC(C)C2)cc1` (configuration not stated), the survival is inactive: 78%.
Consider `Cc1ccc(NC(=O)c2cc3c(Cl)nc4ccc(C)cc4c3s2)c(Cl)c1`, for which the survival was inactive: 73%.
For the molecule `Cc1cccc(C(=O)Nc2c(-c3ccc(F)cc3)nc3ccccn23)c1`, the survival was inactive: 89%.
With `Cc1cc(C)n(-c2nc3cc(Cl)c(Cl)cc3nc2Nc2ccc(F)cc2C)n1`, the survival was inactive: 82%.
Turning to `CCn1c(=O)c2cc(C(=O)Nc3cc(C)c(Cl)cc3OC)sc2c2ccccc21`, the survival was inactive: 66%.
With `COc1ccc(CNC(=O)c2cc(-c3cccs3)nc3ccccc23)c(OC)c1` the figure was inactive: 107%.
Regarding `CCOc1ccccc1N1CC(c2nc3ccccc3n2CCOc2ccc(OC)cc2)CC1=O` (configuration not stated), the survival is inactive: 51%.
As for `CC(=O)N(Cc1cccnc1)c1nc2c(C)cc(C)cc2s1`, the survival was inactive: 81%.
With `Cc1ccc(NC(=S)N(Cc2ccco2)Cc2cc3cc(C)c(Cl)cc3[nH]c2=O)cc1` the figure was inactive: 108%; with `Cc1nnc(N2CCCC(C(=O)Nc3ccccc3C(F)(F)F)C2)c2nn(-c3ccccc3)c(C)c12` (configuration not stated), inactive: 125%; with `CC1CCc2c(sc3nnn(Cc4ccccc4)c(=O)c23)C1` (configuration not stated), active: 0%.
Turning to `Cc1ccc(-c2nc3ccccn3c2Nc2c(C)cccc2C)o1`, the survival is active: -20%.
With `Cc1ccc(NS(=O)(=O)c2ccc3[nH]c4c(c3c2)CCCC4)c(C)c1` the figure was inactive: 82%.
With `NC(=O)N(CCC(=O)O)c1ccccc1`, the survival was inactive: 109%.
Then `CCOc1ccc(NC(=O)Cn2cc(C(=O)c3ccccc3)c(=O)c3cc(OC)ccc32)cc1`, with inactive: 63%; and `O=C(Cc1ccc(F)cc1)NCCc1csc2nc(-c3ccc(Cl)cc3)nn12`, with inactive: 66%; and `CC(=O)N1C(=O)/C(=C2\SC(=S)N(C(C)C(=O)O)C2=O)c2ccccc21` (configuration not stated), with inactive: 110%.
On to `CCN1C(=O)c2ccccc2S(=O)c2ccc(C(=O)N3CCN(c4cccc(Cl)c4)CC3)cc21` (configuration not stated), for which the survival was inactive: 84%.
With `COC(=O)c1cc(NC(=O)CCc2c(C)nc3nc(C)nn3c2C)cc(C(=O)OC)c1`, the survival was inactive: 72%.
In the case of `COC(=O)C1=C(C)Nc2nc3ccccc3n2C1c1ccccc1` (configuration not stated), the survival was inactive: 91%.
Consider `c1ccn(-c2ccc(N3CCOCC3)cc2)c1`, for which the survival was inactive: 112%.
With `CCCCn1c(SCc2ccccc2C#N)nc2c(sc3ccccc32)c1=O` the figure was active: 14%; with `CC1=C(C(=O)Nc2ccccc2C)C(c2ccc[nH]2)n2ncnc2N1` (configuration not stated), inactive: 99%.
With `Cc1ccc(-n2ncc3c(=O)n(Cc4cccc(C(F)(F)F)c4)cnc32)cc1C`, the survival was inactive: 90%.
For `Cc1cccc(CC(=O)Nc2cccc(-c3cn4cccnc4n3)c2)c1`, the survival is inactive: 78%.
With `CC1=C(C)NC(=S)SC1`, the survival is inactive: 111%.
Regarding `CCOC(=O)Cn1c(=O)cc(C)c2c(C)nn(-c3cccc(F)c3)c21`, the survival is inactive: 72%.
With `Cc1ccc2c(c1)-c1onc(C(=O)N(C)c3ccc(F)cc3)c1CO2`, the survival was inactive: 82%.
In the case of `CCc1ccc(S(=O)(=O)Nc2ccc3oc(C)c(C(=O)OCCOC)c3c2)cc1`, the survival was inactive: 60%.
For the molecule `O=C(Cc1ccccc1)NCc1ccccn1`, the survival is inactive: 90%.
Turning to `COc1ccc(CNC(=O)C2CCN(S(=O)(=O)Cc3ccccc3)CC2)cc1`, the survival was inactive: 114%.
Take `Cc1cccc(NC(=O)c2cc3c(C)nn(-c4ccccc4)c3s2)c1`: the survival was active: -2%.
With `CCOC(=O)c1[nH]c(C)c(C(=O)NCc2ccccc2Cl)c1C` the figure was inactive: 114%; with `O=C(NCc1ccc2c(c1)CCN2C(=O)c1ccncc1)c1cccc(F)c1`, inactive: 80%; with `COc1ccc(NC(=O)c2ccc(-c3nc(CSc4ccccc4)c(C)o3)cc2)c(OC)c1`, inactive: 76%.
For `CCCCN(c1ccccc1)S(=O)(=O)c1cc2c3c(c1)C(C)C(=O)N3CCC2` (configuration not stated), the survival is inactive: 73%.
Take `O=C(CCc1nnc2n(Cc3ccccc3Cl)c(=O)c3ccccc3n12)Nc1ccccc1`: the survival was inactive: 95%.
Turning to `CCOC(=O)C1CCCN(S(=O)(=O)c2cc(Br)cc3c2N(C(=O)CC)CC3)C1` (configuration not stated), the survival is inactive: 62%.
With `CCOc1ccc(C2c3[nH]c4ccccc4c3CCN2C(=O)CCC2CCCC2)cc1` (configuration not stated) the figure was inactive: 97%; with `Cc1nn(-c2ccc(N3CCCCC3)nn2)c(C)c1CCC(=O)Nc1cccc(F)c1`, inactive: 72%.
With `Cc1ccn2c(=O)c(NC(=O)c3cccc([N+](=O)[O-])c3C)c(C)nc2c1` the figure was inactive: 65%; with `CCN(CCCNC(=O)CN1N=C(c2ccc(C)cc2)CCC1=O)c1ccccc1`, active: -2%; with `O=c1cc(-c2ccccc2)nc(SCc2nc(-c3cccc(C(F)(F)F)c3)no2)[nH]1`, inactive: 83%.
For the molecule `Cc1ccc(COC(=O)c2ccc(-c3nnn(Cc4ccc(C)cc4)n3)cc2)cc1`, the survival is inactive: 76%.
For `Fc1ccc(-n2ncc3c(NCCCc4ccccc4)ncnc32)cc1`, the survival was inactive: 129%.
On to `CCCCN(CC)C(=O)Cn1cc2c(n1)-c1c(oc(C(=O)N3CCCC3)c1C)CC2`, for which the survival is inactive: 85%.
In the case of `CC(=O)C(Sc1nc(-c2ccccc2Cl)nc2c1c(=O)n(C)c(=O)n2C)C(=O)N(C)C` (configuration not stated), the survival was inactive: 71%.
With `CCC(=O)N1CCc2cc(S(=O)(=O)NC(CC(C)C)C(=O)NCc3cccc(OC)c3)ccc21` (configuration not stated), the survival was inactive: 73%.
With `Cc1ccc(CNC(=O)CCCn2nc(C)n3c(cc4sccc43)c2=O)cc1` the figure was inactive: 82%.
Then `COc1cccc(C(=O)c2cn(CC(=O)Nc3ccc4c(c3)OCCO4)c3nc(C)ccc3c2=O)c1`, with inactive: 86%; and `COc1ccc(C2CC(=O)C=C(NCCC(C)C)C2)cc1` (configuration not stated), with inactive: 115%.
For `Cc1ccc(NC(=O)NCc2c(-n3cccc3)sc3c2CCCC3)c(Cl)c1`, the survival was inactive: 90%.
Take `Cc1ccc(CNC(=O)c2cn(C)c3ccc(S(=O)(=O)N4CCC(C)CC4)cc3c2=O)cc1`: the survival is inactive: 71%.
As to `CCOC(=O)c1cccc(NC(=O)NC2COc3ccccc3C2)c1` (configuration not stated), the survival is inactive: 73%.
For `CCN(Cc1ccccc1)S(=O)(=O)c1ccc(F)c(C(=O)Nc2ccc(C(C)C)cc2)c1`, the survival was inactive: 95%.
Then `Cc1cccc(C)c1NC(=O)c1cc2sccc2n1Cc1ccc(F)cc1`, with inactive: 152%; and `COc1cc(NC(=O)C2CCN(S(=O)(=O)c3c(C)noc3/C=C/c3c(C)cc(C)cc3C)CC2)cc(OC)c1`, with inactive: 80%.
Regarding `COc1ccc(OC)c(CNc2ncc(-c3ccc(Cl)cc3)n2C)c1`, the survival is inactive: 34%.
With `CCC(=O)N=c1sc2ccccc2n1C`, the survival is inactive: 110%.
For `Cc1ccccc1CN1C(=O)c2ccccc2Sc2ccc(C(=O)NCCCN3CCOCC3)cc21`, the survival is inactive: 66%.
Then `O=C(NCCCc1ccccc1)c1ccc2c(c1)sc1nc(-c3ccc(F)cc3)cn12`, with inactive: 43%.
In the case of `O=C(NC1CCCCC1)c1ccc2ccccc2n1`, the survival was inactive: 117%.
With `CC(=O)c1ccc(S(=O)(=O)Nc2cccc(-c3ccc(N4CCCC4)nn3)c2)cc1` the figure was inactive: 71%.
Then `Cc1ccc(Sc2c(C)nn(-c3ccccc3)c2OC(=O)CC(C)C)cc1`, with inactive: 45%.
As for `CC1(C)CC2(C=CC(=O)CC2)CCO1` (configuration not stated), the survival is inactive: 96%.
Take `CCOc1ccc(CC(=O)NCc2ccc3c(c2)CCN3C(=O)c2ccc(F)cc2)cc1OCC`: the survival is inactive: 69%.
Regarding `Cc1ccc(NC(=O)c2sc3nc[nH]c(=O)c3c2C)cc1C`, the survival is inactive: 93%.
Turning to `Cc1ccc(NC(=O)CN2C(=O)c3ccccc3Sc3ncccc32)c(C)c1`, the survival is inactive: 90%.
Turning to `O=C(NCCc1ccc(Cl)cc1)c1ccc2c(c1)N(Cc1ccccc1)C(=O)CS2`, the survival was inactive: 19%.
Consider `COc1ccccc1NC(=O)C1=C(C)Nc2nc(SCc3ccccc3)nn2C1c1cccs1` (configuration not stated), for which the survival is inactive: 127%.
As to `CC(=O)c1ccc(NC(=O)c2nn(C)c3c2COc2ccccc2-3)cc1`, the survival was inactive: 97%.
Take `CCn1c(SCC(=O)Nc2cc(Cl)ccc2OC)nc2c([nH]c3ccccc32)c1=O`: the survival was inactive: 75%.
Then `Cc1sc2ncnc(N3CCC(C)CC3)c2c1C`, with inactive: 101%; and `CCc1cc2c(-c3ccccc3)cc(=O)oc2c2c1OCN(Cc1ccc(C)cc1)C2`, with inactive: 75%; and `CCOC(=O)c1c(NC(=O)c2cc(-c3ccc(Br)cc3)on2)sc(C)c1C`, with inactive: 154%.
For the molecule `NC(=O)c1ccccc1NC(=O)CSc1nc(N)cc(=O)[nH]1`, the survival was inactive: 111%.
Consider `CC(Oc1ccccc1F)C(=O)N1CCC(c2nc3ccccc3o2)CC1` (configuration not stated), for which the survival was active: -18%.
In the case of `CCOc1ccccc1NC(=O)N1CCC(N2CCN(Cc3ccccc3)C(=O)C2=O)CC1`, the survival is inactive: 68%.
Take `CNC(=S)N(CCN1CCOCC1)Cc1cc2cc(C)c(Cl)cc2[nH]c1=O`: the survival is inactive: 113%.

Source of the values: PubChem BioAssay AID463173 (ICCB-Longwood Screening Facility, Harvard Medical School, 2010).
